In patent US20060258842A1:
No constants are given. Whether binding was seen depends on the method and setting. Some entries that bind do so weakly or less than the wild type.

By UniProt entry, the sequences of proteins in these tests, tags left out. Residues count along the entry.
GST fusion of protective antigen domain 1 (P13423, residues 30-287): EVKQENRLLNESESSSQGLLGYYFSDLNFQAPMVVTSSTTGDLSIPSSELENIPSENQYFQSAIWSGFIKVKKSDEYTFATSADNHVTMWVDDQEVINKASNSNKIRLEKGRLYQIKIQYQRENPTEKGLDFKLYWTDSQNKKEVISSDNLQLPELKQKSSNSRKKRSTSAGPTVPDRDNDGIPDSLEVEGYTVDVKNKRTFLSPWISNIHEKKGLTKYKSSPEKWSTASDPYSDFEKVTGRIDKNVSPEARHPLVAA
GST fusion of protective antigen domains 3 to 4 (P13423, residues 517-764): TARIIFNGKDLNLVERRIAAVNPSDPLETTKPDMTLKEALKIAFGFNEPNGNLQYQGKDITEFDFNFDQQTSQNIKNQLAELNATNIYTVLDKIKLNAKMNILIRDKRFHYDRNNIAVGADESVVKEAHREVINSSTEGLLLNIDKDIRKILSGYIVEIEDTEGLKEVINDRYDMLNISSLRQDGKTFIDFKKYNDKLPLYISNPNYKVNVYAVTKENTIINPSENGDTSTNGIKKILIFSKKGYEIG
GST fusion of protective antigen domain 4 (P13423, residues 625-764): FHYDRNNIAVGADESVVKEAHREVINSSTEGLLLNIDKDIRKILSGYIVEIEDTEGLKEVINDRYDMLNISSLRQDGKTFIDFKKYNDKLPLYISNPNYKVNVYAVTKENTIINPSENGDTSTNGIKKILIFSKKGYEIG

B1: human monoclonal antibody IQNPA-1 (antibody, V domains shown)
VH: QVQLVQSGAEVKKPGASVKVSCKASGYTFTSNAIQWVRQAPGQRLEWVGWINGGDGNTKYSQKFQGRVTISRDISASTAYMELSSLRSEDTAVYYCARHRLQRGGFDPWGQGTLVTVSS
VL: EIVLTQSPGTLSLSPGERATLSCRASQSVSYSSLAWYQQKPGQAPSLLIYGASSRATGIPDRFSGSGSGPDFTLTISRLEPEDFAVYYCQHYGNSPYTFGQGTKLEIKR
B2: human monoclonal antibody IQNPA-2 (antibody, V domains shown)
VH: QVQLVQSGAEVKKPGASVKVSCKASGYTFTSNAIQWVRQAPGQRLEWVGWINGGDGNTKYSQKFQGRVTISRDISASTAYMELSSLRSEDTAVYYCARHRLQRGGFDPWGQGTLVTVSS
VL: EIVLTQSPGTLSLSPGERATLSCRASQSVSYSSLAWYQQKPGQAPSLLIYGASSRATGIPDRFSGSGSGPDFTLTISRLEPEDFAVYYCQHYGNSPYTFGQGTKLEIKR

Legend:
Assay in all cases: ELISA, plate coated with GST-PA domain protein
[1] = target: GST fusion of protective antigen domains 3 to 4 (Bacillus anthracis) (UniProt P13423)
[2] = target: GST fusion of protective antigen domain 1 (Bacillus anthracis) (UniProt P13423)
[3] = target: GST fusion of protective antigen domain 4 (Bacillus anthracis) (UniProt P13423)

Binder | binding [1] | binding [2] | binding [3]
B1 | binds | no binding (tested: starting dilution 1:100 of 0.77 mg/ml) | binds
B2 | binds | no binding (tested: starting dilution 1:100 of 0.65 mg/ml) | binds
